Measurements published in paper PMC4242493.
The list shows a part of the results. The list includes weakly bound sequences.

These sequences were tested against MaxL homodimer (UniProt P61244) (assay: universal protein-binding microarray (PBM)). Conditions: PBS-based mixture, 10 nM His-tagged protein dimer, 2% milk, 200 ng/uL BSA, 50 ng/uL salmon testes DNA, 0.02% TX-100; detection with Alexa 488 anti-His …; high values mean tight binding; most listed sequences are background and not binding sites; double strand, one strand shown.
Sequence of UniProt P61244 (P61244 whole entry): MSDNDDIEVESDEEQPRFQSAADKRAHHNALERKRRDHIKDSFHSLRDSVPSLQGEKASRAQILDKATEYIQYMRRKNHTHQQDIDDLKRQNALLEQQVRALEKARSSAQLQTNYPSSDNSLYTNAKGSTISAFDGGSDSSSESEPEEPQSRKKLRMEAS
Work on TCGATACA yielded a binding signal (normalized occupancy) of 0.0806. GCCGAAAC gave a binding signal (normalized occupancy) of 0.0728. ACAATGAC gave a binding signal (normalized occupancy) of 0.0803. Work on CATTAATA yielded a binding signal (normalized occupancy) of 0.0783. In the case of AGGCCGAG, the binding signal (normalized occupancy) is reported as 0.069. GCACCAGC was tested, and the binding signal (normalized occupancy) was 0.0755. CACTAGGA was tested, and the binding signal (normalized occupancy) was 0.0706. Sequence GAGACGAC has a binding signal (normalized occupancy) of 0.071. Sequence CCGTCGTA has a binding signal (normalized occupancy) of 0.0747. AGCATCGG showed a binding signal (normalized occupancy) of 0.07. Sequence AATTCCTA has a binding signal (normalized occupancy) of 0.0804. CCTCCCCC showed a binding signal (normalized occupancy) of 0.0844. CTGAGCGC gave a binding signal (normalized occupancy) of 0.0695. CAATTGCG gave a binding signal (normalized occupancy) of 0.0708. For GGGCGCAA, the binding signal (normalized occupancy) was 0.0657. For ATTAACTA, the binding signal (normalized occupancy) was 0.0821. ACACACGT was tested, and the binding signal (normalized occupancy) was 0.0986. With AGTCACCC the binding signal (normalized occupancy) was 0.0791. CCGGTGCA gave a binding signal (normalized occupancy) of 0.0721. GAGTATAA showed a binding signal (normalized occupancy) of 0.0759. GCTCAAGA was tested, and the binding signal (normalized occupancy) was 0.0721. For GGAGTCAA, the binding signal (normalized occupancy) was 0.0703. GGGTTATA showed a binding signal (normalized occupancy) of 0.0839. Work on CGGATACA yielded a binding signal (normalized occupancy) of 0.0858. With ATGGCCCA the binding signal (normalized occupancy) was 0.0782. Work on AGCGGAAC yielded a binding signal (normalized occupancy) of 0.0655. CGCTACAC was tested, and the binding signal (normalized occupancy) was 0.079. In the case of GCTCCACC, the binding signal (normalized occupancy) is reported as 0.073. CAGCCTCG was tested, and the binding signal (normalized occupancy) was 0.0735. For CGAAACGC, the binding signal (normalized occupancy) was 0.0714. For CCCGAGCG, the binding signal (normalized occupancy) was 0.0639. For CAAAATTC, the binding signal (normalized occupancy) was 0.0707. In the case of CTAAAGAA, the binding signal (normalized occupancy) is reported as 0.0673. With CGAGCACA the binding signal (normalized occupancy) was 0.0845. With ACATTGTA the binding signal (normalized occupancy) was 0.085. ATGCCCGC was tested, and the binding signal (normalized occupancy) was 0.0791. For CAACTCAC, the binding signal (normalized occupancy) was 0.0757. CTTGGGCC showed a binding signal (normalized occupancy) of 0.0661. Work on AGCAGCCT yielded a binding signal (normalized occupancy) of 0.0719. In the case of ATAGCAGA, the binding signal (normalized occupancy) is reported as 0.0831. With AGATTAAG the binding signal (normalized occupancy) was 0.0762. ACCCATTC showed a binding signal (normalized occupancy) of 0.0754. GTAAAAAA was tested, and the binding signal (normalized occupancy) was 0.0769. Sequence CCTCCAAG has a binding signal (normalized occupancy) of 0.071. Sequence GCGCAGAA has a binding signal (normalized occupancy) of 0.0697. CCACCCTA was tested, and the binding signal (normalized occupancy) was 0.0825. Sequence ACCAGGAG has a binding signal (normalized occupancy) of 0.0724. AGCCGGGC gave a binding signal (normalized occupancy) of 0.0651. Work on AAGATGGT yielded a binding signal (normalized occupancy) of 0.0763. Sequence ATTAGTGG has a binding signal (normalized occupancy) of 0.0793. For CTGACTCA, the binding signal (normalized occupancy) was 0.0764. For AAGACTGA, the binding signal (normalized occupancy) was 0.0739. TCAGATGA gave a binding signal (normalized occupancy) of 0.0795. Work on AGGCCCCG yielded a binding signal (normalized occupancy) of 0.0733. For TGAGCCAA, the binding signal (normalized occupancy) was 0.0783. CTGGCTTA was tested, and the binding signal (normalized occupancy) was 0.0662. Work on AGTGCCCC yielded a binding signal (normalized occupancy) of 0.0768. AAAGGTTA showed a binding signal (normalized occupancy) of 0.0754. Work on AAGCGCAA yielded a binding signal (normalized occupancy) of 0.0657. For AGACTTAC, the binding signal (normalized occupancy) was 0.0779. In the case of AGAGGTGC, the binding signal (normalized occupancy) is reported as 0.0762. CGGAATTC was tested, and the binding signal (normalized occupancy) was 0.0726. For ACCGTTAT, the binding signal (normalized occupancy) was 0.0775. GGTCGTGA gave a binding signal (normalized occupancy) of 0.0739. CCTGCGCG was tested, and the binding signal (normalized occupancy) was 0.069. ACTCGGAC showed a binding signal (normalized occupancy) of 0.0727. Sequence CAACGGTG has a binding signal (normalized occupancy) of 0.0765. With AACATGAG the binding signal (normalized occupancy) was 0.0999. For AGATCGAG, the binding signal (normalized occupancy) was 0.0716. GAGGAAAC showed a binding signal (normalized occupancy) of 0.0723. Work on ATGGTACG yielded a binding signal (normalized occupancy) of 0.08. ACGGTATC was tested, and the binding signal (normalized occupancy) was 0.0721. For ATGACACC, the binding signal (normalized occupancy) was 0.0826. AGGCTACC was tested, and the binding signal (normalized occupancy) was 0.0747. ACAGTAAA showed a binding signal (normalized occupancy) of 0.0733. In the case of ACTAGTAA, the binding signal (normalized occupancy) is reported as 0.0744. AGCAGCAG was tested, and the binding signal (normalized occupancy) was 0.0718. For ATCTTCAC, the binding signal (normalized occupancy) was 0.0759. ATGCTTCG gave a binding signal (normalized occupancy) of 0.0788. For ATGACTAC, the binding signal (normalized occupancy) was 0.0811. In the case of CCAGCCGC, the binding signal (normalized occupancy) is reported as 0.0711. GCCGTAAC showed a binding signal (normalized occupancy) of 0.0713. For AACAGTTA, the binding signal (normalized occupancy) was 0.07. TGCACCAA showed a binding signal (normalized occupancy) of 0.077. For CCATGCAC, the binding signal (normalized occupancy) was 0.0969. In the case of CTGTGTAC, the binding signal (normalized occupancy) is reported as 0.0761. Work on CAAGTATA yielded a binding signal (normalized occupancy) of 0.086. For CGAAACTA, the binding signal (normalized occupancy) was 0.0701. In the case of GAACACGA, the binding signal (normalized occupancy) is reported as 0.0948. CAATTCCC gave a binding signal (normalized occupancy) of 0.0808. GGAGGCAC was tested, and the binding signal (normalized occupancy) was 0.0743. Sequence AGATTTTA has a binding signal (normalized occupancy) of 0.0758. Sequence ATCATCCG has a binding signal (normalized occupancy) of 0.0779. Work on CGCCGAAC yielded a binding signal (normalized occupancy) of 0.0739. CGCGCGCG gave a binding signal (normalized occupancy) of 0.0873. Sequence AGCACCCT has a binding signal (normalized occupancy) of 0.0789. Work on AACGAGGT yielded a binding signal (normalized occupancy) of 0.084. With TAAAGAAA the binding signal (normalized occupancy) was 0.0705. For CTCATGTA, the binding signal (normalized occupancy) was 0.0936. For GCGTGAGC, the binding signal (normalized occupancy) was 0.091. For CACTTTCA, the binding signal (normalized occupancy) was 0.0735. Sequence ACTTCAAA has a binding signal (normalized occupancy) of 0.0727. CGTCTAAA showed a binding signal (normalized occupancy) of 0.072. With GGAAATGA the binding signal (normalized occupancy) was 0.0761. For AACTTAAG, the binding signal (normalized occupancy) was 0.0741. In the case of AAGCGGCA, the binding signal (normalized occupancy) is reported as 0.0743. CGCATAAC showed a binding signal (normalized occupancy) of 0.0798. For TAGTAATA, the binding signal (normalized occupancy) was 0.0773. ATATTACC showed a binding signal (normalized occupancy) of 0.077. AGTCTTAT was tested, and the binding signal (normalized occupancy) was 0.0802. For CTTTCGTC, the binding signal (normalized occupancy) was 0.0737. In the case of GGTGGGGA, the binding signal (normalized occupancy) is reported as 0.0816. In the case of ACCTTTCG, the binding signal (normalized occupancy) is reported as 0.0715. CGGTCACA showed a binding signal (normalized occupancy) of 0.0791. CTCTCGTC gave a binding signal (normalized occupancy) of 0.0699. Sequence ATCACCAC has a binding signal (normalized occupancy) of 0.0852. Work on CGACAGTA yielded a binding signal (normalized occupancy) of 0.0748. With CGTAGGGA the binding signal (normalized occupancy) was 0.073. With CGGCGGTC the binding signal (normalized occupancy) was 0.0675. Work on CGGAAAGC yielded a binding signal (normalized occupancy) of 0.0696. Sequence GTGTGTAA has a binding signal (normalized occupancy) of 0.0776. AGGCGGCC gave a binding signal (normalized occupancy) of 0.0747. Work on AGCGCGTC yielded a binding signal (normalized occupancy) of 0.0772. With CCTAGATA the binding signal (normalized occupancy) was 0.0756. ATTACAGC was tested, and the binding signal (normalized occupancy) was 0.0764. With GCGAGCCA the binding signal (normalized occupancy) was 0.0666. AGACCACA gave a binding signal (normalized occupancy) of 0.082. CTATAGGA gave a binding signal (normalized occupancy) of 0.0753. Work on AATTAATT yielded a binding signal (normalized occupancy) of 0.0782. Work on ACCTACGG yielded a binding signal (normalized occupancy) of 0.0677. CCGGTAAG was tested, and the binding signal (normalized occupancy) was 0.0644. For GCTAACCC, the binding signal (normalized occupancy) was 0.0788. CCGTCCGC showed a binding signal (normalized occupancy) of 0.0764. ACGACACG gave a binding signal (normalized occupancy) of 0.0876. ATTTTTAC gave a binding signal (normalized occupancy) of 0.0773. Work on CCTTCCGA yielded a binding signal (normalized occupancy) of 0.0695. AACCTAGT was tested, and the binding signal (normalized occupancy) was 0.0704. ACTTACCC was tested, and the binding signal (normalized occupancy) was 0.0824. With AGACCGCG the binding signal (normalized occupancy) was 0.0698. GTCCAGAA gave a binding signal (normalized occupancy) of 0.0736. With AACGCCAT the binding signal (normalized occupancy) was 0.0796. GTACCCAC was tested, and the binding signal (normalized occupancy) was 0.0809. TAATTAGA showed a binding signal (normalized occupancy) of 0.0731. With CCAGCCAA the binding signal (normalized occupancy) was 0.0689. With TAAGAGAA the binding signal (normalized occupancy) was 0.0732. CGTTAGAG gave a binding signal (normalized occupancy) of 0.0749. With AATGCGTG the binding signal (normalized occupancy) was 0.0941. CCATGCAG showed a binding signal (normalized occupancy) of 0.0965. For CAATAGGA, the binding signal (normalized occupancy) was 0.0779. CACCCCTA showed a binding signal (normalized occupancy) of 0.0846. Work on CGGAAGGC yielded a binding signal (normalized occupancy) of 0.0657. Work on CAGGTTGC yielded a binding signal (normalized occupancy) of 0.0791. Work on AAGTGGCC yielded a binding signal (normalized occupancy) of 0.0705. In the case of CAATACTA, the binding signal (normalized occupancy) is reported as 0.0735. Work on GTAGTACA yielded a binding signal (normalized occupancy) of 0.0841. TAGCAGCA showed a binding signal (normalized occupancy) of 0.0781. In the case of ATCCCGGA, the binding signal (normalized occupancy) is reported as 0.0731. TCTCGACA was tested, and the binding signal (normalized occupancy) was 0.075. In the case of AAGAACCA, the binding signal (normalized occupancy) is reported as 0.0782. Work on ATCGTTGG yielded a binding signal (normalized occupancy) of 0.077. CAGAGTTA showed a binding signal (normalized occupancy) of 0.0755. In the case of AGGGACCT, the binding signal (normalized occupancy) is reported as 0.0673. Sequence CCTGCACG has a binding signal (normalized occupancy) of 0.0845. Work on AGGTGGAG yielded a binding signal (normalized occupancy) of 0.0827. CTTTGTTA was tested, and the binding signal (normalized occupancy) was 0.0748. For GACTCAGA, the binding signal (normalized occupancy) was 0.072. In the case of GATAATGC, the binding signal (normalized occupancy) is reported as 0.0859. AGTCCCTG was tested, and the binding signal (normalized occupancy) was 0.0718. In the case of AGCTAGAA, the binding signal (normalized occupancy) is reported as 0.0701. ACAACATA gave a binding signal (normalized occupancy) of 0.0833. With ATCCGGGG the binding signal (normalized occupancy) was 0.0744. For GCCCTCTA, the binding signal (normalized occupancy) was 0.0736. CCATTGGA showed a binding signal (normalized occupancy) of 0.0702. CCCACTCC showed a binding signal (normalized occupancy) of 0.0787. Work on AAGTGAAT yielded a binding signal (normalized occupancy) of 0.0756. Work on GCTGAGAA yielded a binding signal (normalized occupancy) of 0.0743. With AATACTCA the binding signal (normalized occupancy) was 0.0802. For ATTGGGGG, the binding signal (normalized occupancy) was 0.0854. TGCCAACA gave a binding signal (normalized occupancy) of 0.0786. With CAAGGCCA the binding signal (normalized occupancy) was 0.0771. CCAATATA was tested, and the binding signal (normalized occupancy) was 0.0811. With AGACACGG the binding signal (normalized occupancy) was 0.0756. For ATAAGCGG, the binding signal (normalized occupancy) was 0.0717. With CGATCGAC the binding signal (normalized occupancy) was 0.0717. Sequence ATGCATCG has a binding signal (normalized occupancy) of 0.0835. Sequence CCACTAAG has a binding signal (normalized occupancy) of 0.0706. Work on GCCAGGCC yielded a binding signal (normalized occupancy) of 0.0665. CTGACGGA was tested, and the binding signal (normalized occupancy) was 0.0692. In the case of CAGCAGTA, the binding signal (normalized occupancy) is reported as 0.0727. GGAGCTCC was tested, and the binding signal (normalized occupancy) was 0.066. For ATTGTGGG, the binding signal (normalized occupancy) was 0.0776.
